Test results reported in the supplement of paper PMC12217912.
The list shows a part of the results. Sequences were assembled here from the parent chain. Values near 0.05 are background.

B1: TEV protease; numbered along this chain (parent)
chain: MGESLFKGPRDYNPISSSICHLTNESDGHTTSLYGIGFGPFIITNKHLFRRNNGTLVVQSLHGVFKVKDTTTLQQHLVDGRDMIIIRMPKDFPPFPQKLKFREPQREERICLVTTNFQTKSMSSMVSDTSCTFPSGDGIFWKHWIQTKDGQCGSPLVSTRDGFIVGIHSASNFTNTNNYFTSVPKNFMELLTNQEAQQWVSGWRLNADSVLWGGHKVFMVKPEEPFQPVKEATQL

Variants of: B1
Assay: raw area under fraction-flipped curve 0-4 h after induction (AUC4h, not background-subtracted), DNA-recorder readout of cleavage of the substrate (dimensionless); higher = more cleavage of the substrate by the protease variant
Conditions: temperature: 34 °C; time window: 0-4 h after rhamnose induction
Method: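 In vivo DNA recorder in E. coli TOP10(DE3) ΔrhaA at 34 °C. Each TEVp single-site mutant (parent TEVp 0) is paired with a single-site variant of the 7-mer TEVs (canonical ENLYFQ|S). The substrate sits between flexible linkers in a Bxb1-sfGFP-TEVs-SsrA fusion, so cleavage stabilises Bxb1 and speeds flipping of a recombination array, read by NGS. The value is the raw area under the fraction-flipped curve over 0-4 h after rhamnose induction (AUC4h), with ≥20 reads per time point. It is not background-subtracted; inactive controls average about 0.047.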
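Note: Bxb1 expression induced with 0.2% (w/v) L-rhamnose at OD600 near 0.5, cultures sampled hourly, flipped fraction per protease–substrate barcode pair counted by paired-end Illumina sequencing.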

Row | Variant | area with substrate ENLYFQA | area with substrate ENLYFQK | area with substrate ENLYFQL | area with substrate ENLYFQM | area with substrate ENLYFQS | area with substrate ENLYFQC | area with substrate ENLYFQF | area with substrate ENLYFQI | area with substrate ENLYFQN | area with substrate ENLYFQR | area with substrate ENLYFQT | area with substrate ENLYFQG | area with substrate ENLYFQQ | area with substrate ENLYFQV | area with substrate ENLYFQW | area with substrate ENLYFQY | area with substrate ENLYFQD | area with substrate ENLYFQH | area with substrate ENLYFQP | area with substrate ENLYFQE
1 | V67E | 0.0861 | 0.0708 | 0.0447 | 0.0865 | 0.0822 |  |  |  |  |  |  |  |  |  |  |  |  |  |  | 
2 | Y34D | 0.0718 | 0.0489 |  |  | 0.0729 | 0.0922 | 0.0427 | 0.0506 | 0.0597 | 0.0621 | 0.057 |  |  |  |  |  |  |  |  | 
3 | Y34T | 0.088 | 0.0628 | 0.0414 |  | 0.0752 |  |  | 0.0677 |  |  |  | 0.0677 | 0.0605 | 0.0702 | 0.0591 | 0.0633 |  |  |  | 
4 | Q59S | 0.101 | 0.0655 | 0.0594 |  | 0.0992 |  |  |  |  |  | 0.0671 |  |  |  | 0.0711 |  | 0.0726 |  |  | 
5 | Q59C | 0.111 |  |  | 0.105 | 0.104 |  |  | 0.0635 | 0.0989 | 0.0531 |  |  |  | 0.0624 | 0.0629 |  | 0.0763 | 0.0734 | 0.0598 | 
6 | Q59W | 0.104 |  | 0.0449 | 0.0585 | 0.108 |  | 0.0788 |  |  | 0.064 |  | 0.109 |  |  |  | 0.0785 |  |  | 0.0477 | 
7 | F6L | 0.0614 | 0.0864 | 0.0707 |  | 0.0673 | 0.0772 |  | 0.0471 | 0.0432 | 0.0593 | 0.0631 | 0.0637 |  |  |  | 0.0663 |  | 0.0696 |  | 
8 | F6E | 0.079 |  | 0.041 |  | 0.0848 | 0.0777 |  |  | 0.0599 |  |  |  | 0.074 |  |  | 0.0792 |  | 0.0813 |  | 
9 | T70C | 0.0672 | 0.0577 | 0.0634 | 0.0559 | 0.0803 | 0.0713 |  | 0.0644 |  | 0.0641 | 0.0856 | 0.103 |  |  | 0.0674 | 0.0492 | 0.0807 | 0.0742 | 0.0556 | 0.0621
10 | V57F | 0.068 | 0.059 |  | 0.0933 | 0.102 |  | 0.0748 | 0.0499 | 0.0739 | 0.0682 |  | 0.102 |  |  | 0.0601 |  |  | 0.1 |  | 
11 | V57P | 0.048 |  | 0.0415 |  | 0.0495 |  |  |  | 0.0451 | 0.0438 |  | 0.047 |  |  | 0.0382 | 0.0431 | 0.0558 |  |  | 
12 | H47T | 0.0584 | 0.059 | 0.0505 | 0.054 | 0.061 | 0.0593 |  |  | 0.0435 | 0.063 | 0.0662 | 0.0541 |  |  | 0.0405 |  | 0.0639 | 0.0605 | 0.0526 | 
13 | L61Y | 0.0753 | 0.0568 | 0.0608 | 0.0938 | 0.0996 | 0.107 | 0.0593 |  |  |  |  | 0.0949 |  |  | 0.049 |  | 0.0609 | 0.0745 | 0.0616 | 
14 | L61I | 0.0864 | 0.0671 |  |  | 0.109 | 0.102 |  | 0.0598 | 0.0805 |  |  |  |  |  | 0.022 |  |  | 0.082 |  | 0.0625
15 | L5G | 0.0799 |  |  | 0.0795 | 0.101 | 0.125 | 0.0798 | 0.0686 | 0.079 | 0.0698 | 0.0652 |  |  | 0.0562 |  |  | 0.0798 | 0.1 |  | 0.0711
16 | L5S | 0.115 | 0.0637 |  | 0.051 | 0.113 |  |  | 0.062 | 0.0666 | 0.034 | 0.0692 | 0.0901 |  | 0.067 |  | 0.105 |  |  |  | 

Row | Variant | area with substrate ENLYFQA | area with substrate ENLYFQK | area with substrate ENLYFQL | area with substrate ENLYFQM | area with substrate ENLYFQS | area with substrate ENLYFQC | area with substrate ENLYFQF | area with substrate ENLYFQI | area with substrate ENLYFQN | area with substrate ENLYFQR | area with substrate ENLYFQT | area with substrate ENLYFQG | area with substrate ENLYFQQ | area with substrate ENLYFQV | area with substrate ENLYFQW | area with substrate ENLYFQY | area with substrate ENLYFQD | area with substrate ENLYFQH | area with substrate ENLYFQP | area with substrate ENLYFQE
17 | I19D | 0.0442 | 0.0488 | 0.0481 | 0.0385 | 0.0466 | 0.0274 | 0.0518 | 0.044 | 0.0489 | 0.0467 | 0.0391 | 0.0458 |  |  | 0.0549 | 0.0479 | 0.0622 |  |  | 
18 | P14F | 0.0994 | 0.0547 | 0.0638 |  | 0.0907 | 0.0907 |  | 0.0559 | 0.067 | 0.0631 | 0.0694 |  | 0.0885 | 0.0668 | 0.0676 | 0.0727 | 0.085 | 0.0802 | 0.0754 | 
19 | L33T | 0.206 | 0.0677 | 0.0581 |  | 0.121 |  |  |  |  |  | 0.0544 |  |  |  | 0.0549 |  |  | 0.064 |  | 
20 | S18D | 0.0939 |  | 0.0667 | 0.0697 | 0.0882 | 0.1 |  | 0.0601 | 0.0686 | 0.0584 |  |  |  |  | 0.0348 | 0.0504 |  |  |  | 
21 | N24I | 0.09 | 0.0725 | 0.0538 | 0.0663 | 0.0822 | 0.0807 |  | 0.0626 | 0.0643 | 0.0581 | 0.0652 | 0.102 |  |  | 0.0546 | 0.0681 | 0.0649 | 0.0769 | 0.0605 | 
22 | T30H | 0.0873 | 0.0406 | 0.0641 | 0.0831 | 0.0981 | 0.0891 |  | 0.0645 | 0.0834 | 0.0587 | 0.0655 | 0.0788 |  | 0.0653 | 0.0645 |  | 0.0721 | 0.0757 | 0.0538 | 
23 | T30M | 0.129 |  | 0.0641 | 0.0895 | 0.105 | 0.114 |  | 0.0585 | 0.0846 | 0.0603 | 0.0611 | 0.0993 | 0.0672 |  |  | 0.0682 |  | 0.0928 |  | 
24 | I36G | 0.0451 |  |  |  | 0.0471 | 0.0474 |  | 0.0484 | 0.016 |  |  | 0.0526 |  | 0.0455 |  |  |  | 0.0533 |  | 
25 | H62Q | 0.0985 |  | 0.0553 | 0.0829 | 0.101 | 0.115 |  | 0.0617 | 0.0678 |  | 0.0868 |  | 0.0624 |  |  | 0.0729 | 0.0778 |  |  | 
26 | H62T | 0.0875 | 0.0646 | 0.063 | 0.0763 | 0.0919 | 0.122 |  | 0.0534 | 0.0703 | 0.0578 | 0.0671 | 0.101 |  | 0.038 | 0.0855 | 0.0574 |  | 0.0695 | 0.0664 | 
27 | S60I | 0.0808 |  |  | 0.0702 | 0.087 | 0.0843 | 0.0774 | 0.0289 |  | 0.0638 | 0.0572 |  |  |  | 0.0603 |  |  |  |  | 
28 | S60N | 0.144 | 0.0632 | 0.0618 |  | 0.0931 |  |  | 0.0564 |  | 0.0764 | 0.076 | 0.105 | 0.0678 | 0.0625 | 0.0618 | 0.0457 |  |  | 0.0659 | 
29 | G8H | 0.108 |  |  |  | 0.11 |  |  |  |  |  |  |  |  |  | 0.071 |  |  |  |  | 
30 | T31M | 0.107 | 0.0571 |  |  | 0.0982 | 0.116 | 0.0847 |  |  | 0.0468 |  | 0.122 | 0.061 |  | 0.0681 |  |  |  | 0.0761 | 
31 | F65C | 0.0813 |  | 0.0642 | 0.0727 | 0.0995 |  |  | 0.0431 | 0.0848 |  | 0.0622 | 0.0876 |  | 0.0528 | 0.0565 | 0.0573 |  | 0.0822 |  | 
